Source: PubChem BioAssay AID924 (National Center for Advancing Translational Sciences (NCATS), 2007)
Hit rate of the full screen: of about 130,000 compounds, about 1,200 (0.92%) were called active. The shares of active, inactive and inconclusive entries below differ from those in the screen. The call rests on the fitted dose curve; in most records, active means well fitted cell-killing curve with a large enough effect; inconclusive means small, poorly fitted or top-dose-only effect; inactive means no such curve, though single readings can be large or run the other way. Where the call is inconclusive, the potency comes from a doubtful curve fit.

assay: qHTS Screen for Compounds that Selectively Target Cancer Cells with p53 Mutations: Cytotoxicity of p53ts Cells at the Permissive Temperature; conditions: H1299-p53A138V at 32C, ATP luminescence viability, 24 h; activity change, negative = cytotoxicity: at 46.1 µM (top of the series); further: nearly all actives have a fitted effect of over 55% in size;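 on activity change, negative = cytotoxicity: 0% = DMSO and -100% = full killing by reference compound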
Procedure, shortened: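 Cells: H1299 p53ts (A138V), 600/well, pre-incubated 16–30 h at 37C. Cpd up to 46 uM, 24 h, 32C. Readout: ATPlite luminescence, 20 min RT. Normalization: DMSO vs tamoxifen 100 uM. AC50 by Hill equation.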
Potency means the concentration at half of the fitted maximal effect; tags describe the fitted curve by direction and shape.

| Structure (SMILES) | Potency | activity change, negative = cytotoxicity |
| --- | --- | --- |
| COc1ccc(-c2nc(SC)n(C(=O)c3ccco3)n2)cc1 | inconclusive: 12.6 µM [cytotoxic, partial curve] | – |
| O=C(C1CC1)N1CCc2cc(Br)cc(S(=O)(=O)NCCN3CCOCC3)c21 | inconclusive: 0.1 µM [cytotoxic, full curve, poor fit] | – |
| CCN(CC)c1ccc2c(c1)CCCN2 | inconclusive: 31.6 µM [cytotoxic, single point] | – |
| CC(=O)c1cccc(NC(=O)c2cc3ccccn3n2)c1 | active: 12.6 µM | – |
| CCN1C(=O)c2ccccc2S(=O)(=O)c2ccc(C(=O)NCc3ccccc3OC)cc21 | – | inactive: 2.11% |
| COc1ccc(C)cc1NS(=O)(=O)c1ccc2oc(=O)c3ncn(C)c3c2c1 | inconclusive: 31.6 µM [cytotoxic, single point] | – |
| CCc1cc2cc(C(=O)Nc3ccc(F)cc3)sc2s1 | – | inactive: 9.28% |
| Nc1ccc(Nc2ccccc2N)cc1 | inconclusive: 25.1 µM [cytotoxic, single point] | – |
| O=C1Nc2ccc(S(=O)(=O)N3CCCCCC3)c3cccc1c23 | – | inactive: -0.703% |
| CCOc1ccc(-c2cn3nc(CC(C)C)sc3n2)cc1 | inconclusive: 20 µM [cytotoxic, single point] | – |
| COc1ccc(-c2nnc(SCC(=O)Nc3ccccc3OC)o2)cc1 | inconclusive: 12.6 µM [cytotoxic, single point] | – |
| COc1ccc(OC)c(NCc2cccn2-c2nnc(N3CCCCC3)s2)c1 | inconclusive: 6.31 µM [cytotoxic, partial curve] | – |
| CN1CCc2c(sc3c2C(=O)NC(c2ccc(OC(=O)c4ccccc4)cc2)N3)C1 (centres undefined) | inconclusive: 14.1 µM [cytotoxic, single point] | – |
| CCc1c(C)sc(NC(=O)c2cc(C)on2)c1C#N | inconclusive: 20 µM [cytotoxic, partial curve] | – |
| O=C(NCCCN1CCOCC1)c1ccc(Cc2nc3ccccc3[nH]2)cc1 | – | inactive: 2.98% |
| CCOC(=O)c1sc(NCc2ccco2)c(-c2nc3ccccc3s2)c1N | inconclusive: 15.8 µM [cytotoxic, single point] | – |
| COc1ccc(C2C(C(=O)N3CCCCC3)CCC(=O)N2c2cc(OC)c(OC)c(OC)c2)cc1 (centres undefined) | inconclusive: 0.158 µM [cytotoxic, full curve, poor fit] | – |
| Cc1cccc(Nc2nc(-c3cccs3)cs2)n1 | inconclusive: 14.1 µM [cytotoxic, single point] | – |
| Cc1ccc(Cl)cc1NS(=O)(=O)c1ccc2oc(=O)c3ncn(C)c3c2c1 | inconclusive: 17.8 µM [cytotoxic, single point] | – |
| CC(=O)OCC1OC(n2cnc3c(Cl)nc(Cl)nc32)C(OC(C)=O)C1OC(C)=O (centres undefined) | inconclusive: 31.6 µM [cytotoxic, single point] | – |
| O=C(Nc1ccc(S(=O)(=O)Nc2ccccc2)cc1)C1COc2ccccc2O1 (centres undefined) | inconclusive: 35.5 µM [cytotoxic, single point] | – |
| COc1ccc(N2CCN(C(=O)CCn3c(=O)[nH]c4cc(OC)c(OC)cc4c3=O)CC2)cc1 | – | inactive: 5.09% |

| Structure (SMILES) | Potency | activity change, negative = cytotoxicity |
| --- | --- | --- |
| O=C(O)c1cc(S(=O)(=O)Nc2cccc(F)c2)ccc1Cl | – | inactive: 7.43% |
| COc1ccccc1Cn1cc(C(=O)c2ccc(Cl)cc2)c(=O)c2ccccc21 | inconclusive: 25.1 µM [cytotoxic, single point] | – |
| COc1ccc(OCC(=O)N2CCC(c3nc4ccccc4s3)CC2)cc1 | – | inactive: -6.64% |
| O=C1c2ccccc2C(=O)C1c1ccccc1 | inconclusive: 10 µM [cytotoxic, partial curve] | – |
| Cc1cc(C(C)(C)C)oc1C(=O)NCCCNC(=O)c1oc(C(C)(C)C)cc1C | inconclusive: 0.316 µM [cytotoxic, full curve] | – |
| N#CC(Cc1ccc(OC(F)F)cc1)c1nc2ccccc2[nH]1 (centres undefined) | inconclusive: 0.355 µM [cytotoxic, partial curve, poor fit] | – |
| CCOC(=O)c1c(C)oc2c1c(C=NCc1ccccn1)c(O)c1ccccc12 | inconclusive: 31.6 µM [cytotoxic, single point] | – |
| O=C(C[n+]1ccc2ccccc2c1)c1ccc2ccc3ccccc3c2c1 | inconclusive: 6.31 µM [cytotoxic, partial curve] | – |
| CCc1ccc(CNC(=O)C2CCCN(c3nnc(C)c4c(C)n(-c5ccc(OC)cc5)nc34)C2)cc1 (centres undefined) | inconclusive: 25.1 µM [cytotoxic, single point] | – |
| Cc1c(CCC(=O)O)c(=O)oc2cc3occ(-c4ccc(F)cc4)c3cc12 | – | inactive: 6.99% |
| C=CCNc1ncnc2c1cnn2-c1cccc(C)c1 | inconclusive: 10 µM [cytotoxic, partial curve] | – |
| NC(=S)N=Nc1c(O)n(Cc2ccc(Br)cc2)c2ccccc12 | inconclusive: 0.01 µM [cytotoxic, full curve, poor fit] | – |
| Cc1ccc(C(=O)Nc2ccc3c(c2)CCC3)o1 | active: 12.6 µM | – |
| O=C(O)c1cc(NC2(c3ccccc3)C(=O)c3ccccc3C2=O)ccc1Cl | – | inactive: -7.2% |
| CCCCN1C(=O)c2[nH]nc(-c3ccccc3O)c2C1c1cccc(OCc2ccccc2)c1 (centres undefined) | inconclusive: 25.1 µM [cytotoxic, single point] | – |
| Clc1cccc(N2CCN(c3ncnc4c3nc3n4CCCCC3)CC2)c1 | inconclusive: 31.6 µM [cytotoxic, single point] | – |
| CCCCCOc1ccc(CN2CCOCC2)cc1Cl | inconclusive: 31.6 µM [cytotoxic, single point] | – |
| COc1ccc(C2=CC(c3ccc(F)cc3)n3ncc(C(=O)Nc4ccc(C)cc4)c3N2)cc1 (centres undefined) | – | inactive: 25.2% |
| COc1cccc(NC(=O)CSc2nc3c(oc4ccccc43)c(=O)n2Cc2ccco2)c1 | inconclusive: 25.1 µM [cytotoxic, single point] | – |
| Cc1cc(C(=O)CN2C(=O)c3ccccc3C2=O)c(C)n1Cc1cccs1 | inconclusive: 10 µM [cytotoxic, partial curve] | – |
| Cc1oc2c(c(C)cc3oc(=O)c(CC(=O)NCCc4ccccc4F)c(C)c32)c1C | – | inactive: -4.68% |
| Cc1ccc(NC(=O)CS(=O)CC(=O)Nc2cccc(C)c2C)cc1F (centres undefined) | inconclusive: 12.6 µM [cytotoxic, partial curve] | – |
